# The supplement of paper PMC3334620
# The full ranking holds about 33,000 sequences; the median of “E-score (-0.5 to 0.5)” is about -0.041, and the highest 2% start at about 0.37. This is one part of the list.
# Target: T1, Ecm22 (UniProt Q05958)
# T1 sequence: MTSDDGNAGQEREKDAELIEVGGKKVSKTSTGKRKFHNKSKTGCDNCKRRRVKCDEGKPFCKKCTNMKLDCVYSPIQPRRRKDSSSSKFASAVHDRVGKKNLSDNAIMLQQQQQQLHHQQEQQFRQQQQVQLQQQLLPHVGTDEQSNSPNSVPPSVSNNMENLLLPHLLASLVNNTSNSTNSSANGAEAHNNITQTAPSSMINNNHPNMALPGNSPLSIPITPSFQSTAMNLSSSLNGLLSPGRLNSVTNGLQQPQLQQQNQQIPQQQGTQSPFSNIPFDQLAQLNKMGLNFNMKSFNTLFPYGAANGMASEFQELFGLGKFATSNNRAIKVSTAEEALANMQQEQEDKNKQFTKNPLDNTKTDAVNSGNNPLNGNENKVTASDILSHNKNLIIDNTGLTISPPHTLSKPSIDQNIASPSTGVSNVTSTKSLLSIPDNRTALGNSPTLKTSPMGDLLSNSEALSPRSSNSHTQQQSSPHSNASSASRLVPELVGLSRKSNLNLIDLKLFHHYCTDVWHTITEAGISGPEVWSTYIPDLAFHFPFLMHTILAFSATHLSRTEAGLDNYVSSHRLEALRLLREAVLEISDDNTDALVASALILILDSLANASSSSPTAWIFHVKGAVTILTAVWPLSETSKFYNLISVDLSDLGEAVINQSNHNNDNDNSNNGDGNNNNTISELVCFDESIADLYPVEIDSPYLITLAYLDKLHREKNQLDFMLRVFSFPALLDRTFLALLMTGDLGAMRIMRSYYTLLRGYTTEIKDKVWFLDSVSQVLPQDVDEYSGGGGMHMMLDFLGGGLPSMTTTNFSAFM
# Assay: PBM E-score (8-mer binding enrichment) (E-score (-0.5 to 0.5)); higher = stronger / more preferred TF binding; most listed sequences are background and not binding sites
# Settings: protein concentration: 200 nM; construct: GST-full length
# How it was run: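 For each ungapped eight-base word taken together with its reverse complement, the Universal PBM Analysis Suite assigned an E-score. Binding data came from GST-tagged yeast transcription factors, applied at about 100-200 nM, on universal all-10-mer Agilent arrays made double-stranded by primer extension. Fluorescent anti-GST marked bound protein, and scans were normalised with masliner.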
row,Sequence,PBM E-score
1,AAGTCCTA,-0.0248
2,AAACAGGG,-0.123
3,CAGCGGCG,0.0595
4,CCTATCAA,-0.0295
5,TACTTAAA,-0.0916
6,CGCAGGAA,-0.0152
7,TGTAAAAA,-0.0406
8,AACGCTGA,0.0665
9,CAGGATGA,-0.0317
10,CGATTGCC,0.157
11,CGCCGCAA,0.094
12,AGTGCACG,0.112
13,ATCGCGTC,0.151
14,AGGTTTTA,-0.127
15,CAATATGC,0.0461
16,CGCTCCTA,0.0799
17,ACTTGACT,-0.314
18,CCTAGAAA,-0.153
19,AGCAAAAG,-0.00648
20,CTCGATAC,0.168
21,AAGTGTAT,-0.0799
22,GCACCGTA,0.371
23,TGAGTCCA,-0.1
24,GAAGCCTC,-0.0986
25,AATGATGT,-0.037

row,Sequence,PBM E-score
1,AACTACAA,0.019
2,AGTTCCGG,0.0156
3,GCCTTACC,-0.138
4,GGTGCGGA,-0.0515
5,ACTCAGAG,-0.193
6,AGACTCAT,-0.0543
7,TAGACATA,-0.0762
8,CGCACAAA,0.113
9,ATTCGGAA,0.197
10,ACGAACCT,0.173
11,CTAGTATA,0.0068
12,ATCCAGCG,0.0378
13,AGGGTACT,-0.0977
14,CAAGTGGC,-0.238
15,TCTCAAAA,-0.0688
16,GCCAAGAA,-0.104
17,ATTCGGGG,-0.138
18,ATAAGCTG,-0.169
19,CACCTGAC,-0.17
20,CGCGCTTC,0.0127
21,CGGCTCCC,-0.0756
22,GGAGTAAA,0.0078
23,ATCGCGCC,0.15
24,AACAGCTT,-0.122
25,GGTTAGGA,-0.0779

row,Sequence,PBM E-score
1,AACCATAT,0.144
2,CGGAGCGA,0.346
3,TAAGCCCA,-0.111
4,AACGTCCC,-0.284
5,CGATCGCC,0.185
6,CCAGCTAC,-0.122
7,AAAGGAGC,-0.131
8,CACGCTAC,0.112
9,GAAGTACA,-0.108
10,ACTGGTGG,-0.206
11,GGGTCGGA,0.135
12,GAACCTCA,-0.216
13,CGAGTGTC,0.124
14,GTGGACAA,-0.135
15,CTATTACA,0.113
16,AAGGGTCC,-0.227
17,CAGCTTTA,-0.154
18,AGCGCCTA,-0.0437
19,CGGGTGTC,-0.0171
20,ACTAGCCA,-0.064
21,AAGACTCC,-0.299
22,ATAGCCTC,0.0159
23,AAACTTGG,-0.0276
24,TGTCAACA,0.019
25,GGGTTTCA,-0.196

row,Sequence,PBM E-score
1,GCCGGATA,0.0975
2,CGCGCTAC,0.15
3,GGTCCCGA,0.208
4,ATGTAACC,0.0107
5,CAGACAAC,-0.103
6,CTCTTTCC,-0.016
7,ACACGGAG,-0.00366
8,CCTACTGA,-0.185
9,ACTCGGTG,0.0872
10,TCACGGGA,-0.0668
11,AGATACAT,-0.147
12,TGACAAAA,-0.0699
13,TGCGCCCA,-0.0625
14,ACCCCTCA,-0.149
15,GGAAAGTA,-0.0547
16,AACTGTGA,0.011
17,CCCGTCAG,-0.334
18,GAACCTGA,-0.198
19,CAGCTTAA,-0.0431
20,ACCTTCGA,-0.0609
21,GGACAACA,0.0215
22,ACACGACT,0.117
23,CATCGCAA,-0.0617
24,CATGACAG,-0.0857
25,ATACATAG,-0.0517

row,Sequence,PBM E-score
1,AACTTCAA,-0.0703
2,CTACGCGA,0.256
3,ATAAAACC,-0.00182
4,GTGAAATA,0.131
5,ATAAGAGA,0.133
6,GGACACCC,-0.236
7,GCAAGCGC,0.0244
8,ACGAAAGT,0.325
9,AAATGAGT,-0.00288
10,AACCAATC,0.11
11,TGGACCCA,-0.131
12,AAGCGAGC,0.337
13,CCACGCAG,0.0477
14,GCGAACCA,0.146
15,ATGAAAGG,-0.114
16,TACCTTGA,0.0203
17,AATTATAA,-0.0438
18,AAAGATGC,0.0787
19,ATACCGAT,0.057
20,TAAGAAGA,0.0914
21,ACCATACT,0.0825
22,CGACTCCC,0.0301
23,CTAATAGC,-0.104
24,AGTATGGG,-0.206
25,AAATAGGC,-0.173

row,Sequence,PBM E-score
1,ATGTCAAG,-0.234
2,TAAATGGA,-0.192
3,GAAGACCC,-0.252
4,CCCAAATA,-0.214
5,GAGGCGCA,-0.0982
6,GTATAAAC,0.403
7,AAGTGCGC,-0.0198
8,GGAGCCTA,-0.169
9,CATAAGAA,0.104
10,CGAGCTAC,0.201
11,TACGGTCA,0.317
12,AGGTTGCG,-0.162
13,ACCGTTGC,0.175
14,TCGCGGCA,0.0614
15,CCTACGGC,-0.147
16,CACGACTG,0.0526
17,ATGCGATC,0.188
18,GGAGGTCA,-0.323
19,AGGACCAT,0.00977
20,CATTAATC,0.119
21,AAACATAC,0.16
22,AGTCCTAC,-0.0533
23,GATCATAA,0.0783
24,ATGGCTCC,-0.205
25,CCCGGTCG,0.194

row,Sequence,PBM E-score
1,CAGCAACG,0.302
2,GGACGACC,-0.107
3,AGCTGAGA,-0.276
4,AGCTAGAA,-0.227
5,AAACGTTC,0.177
6,AAATTGCC,0.154
7,GAGGCTCC,-0.0369
8,TAAAGTTA,-0.0147
9,CCGCGACC,-0.139
10,ATAGTTTG,0.0538
11,AAGTTCCA,-0.17
12,CAAGGGCC,-0.256
13,AGCCACGC,-0.14
14,TCCCCCCA,-0.444
15,CAAATGAA,0.138
16,ATGCGAGG,0.346
17,GCGGTTTA,0.0249
18,ATGCGATA,0.217
19,AATCCTAG,-0.0928
20,GCCTTGAA,-0.231
21,CCCGCAGA,-0.175
22,TCTACACA,-0.0142
23,AAAACCCC,-0.171
24,ATAAAGAA,-0.0539
25,AATACCAT,0.0007

row,Sequence,PBM E-score
1,GGAAGACA,-0.104
2,TAGTCATA,0.0121
3,CATGTAAA,-0.104
4,ACTATTAG,0.0209
5,ACTCCGAA,0.0114
6,AAAAGGTA,0.0779
7,GATAAAAC,0.242
8,TACCCGGA,0.116
9,CCGAGTCA,0.0691
10,AGTCAGCC,-0.218
11,CCAATGGC,-0.263
12,CACCAAAA,-0.146
13,AGGAGTGG,-0.149
14,CACTAGGC,-0.208
15,TCTGGTCA,-0.171
16,ATTCAAGC,0.145
17,AACACTGC,-0.0216
18,ACTACGGA,-0.0622
19,ATCGGTAG,-0.0709
20,ACCAGGGC,-0.271
21,TAAGGGCA,-0.22
22,CAATCATA,0.0534
23,CGCTTGTC,0.0493
24,GAGACCGC,-0.205
25,GTGCTGTA,0.00032

row,Sequence,PBM E-score
1,CATGAATC,-0.0619
2,AATCGTAA,0.333
3,CCAGCATC,-0.203
4,CTACCCCA,-0.222
5,CTGATCTA,-0.0881
6,ACCGCTCT,-0.193
7,AGCAGCGG,0.0325
8,AGTTCTGC,0.17
9,AAACCTCC,-0.148
10,ACTAATAA,-0.0191
11,CGCGTACG,0.366
12,CGATCTAG,0.00932
13,ATGGGCTC,-0.156
14,ACTCCGAT,-0.298
15,AGACCTTG,-0.252
16,CGTGAGTC,0.0982
17,CGCCCATC,-0.133
18,GCTACGGA,0.232
19,CAACACGC,-0.115
